# Hit rate of the full screen: of about 39,000 compounds, about 220 (0.56%) showed activity. This is one part of the list.
# System: Escherichia coli K-12 BW25113
# Assay: relative growth (OD600 normalised to plate interquartile mean) (fraction); higher = less growth inhibition, active = 0.2 or less
# Details: 50 µM; LB; incubation time: overnight (16-24 h)
# 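Further: static incubation at 37 °C against the wild-type strain, values averaged over two biological replicates.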
row,SMILES,relative growth
1,CN1CCN(C(=O)C[C@H]2CC[C@H]3[C@@H](COC[C@H](O)CN3Cc3ccc4c(c3)OCO4)O2)CC1,inactive: 0.921
2,Cc1noc(C)c1NC(=O)Nc1ccc2c(c1)C(=O)N([C@H](C)CO)C[C@H](C)[C@H](CN(C)Cc1ccc3c(c1)OCO3)OCCCC[C@@H](C)O2,inactive: 0.98
3,C[C@H]1CN([C@@H](C)CO)C(=O)Cc2cc(NS(=O)(=O)c3cn(C)cn3)ccc2O[C@H]1CN(C)S(=O)(=O)c1cn(C)cn1,inactive: 0.96
4,C[C@H]1CN([C@@H](C)CO)C(=O)c2cc(C#Cc3cccnc3)cnc2O[C@H]1CN(C)S(=O)(=O)c1ccccc1F,inactive: 0.986
5,NC(=O)[C@@H]1CCCN1C(=O)[C@H](Cc1c[nH]cn1)NC(=O)[C@@H]1CCC(=O)N1,inactive: 1.05
6,COc1ccc(S(=O)(=O)N(C)C[C@H]2Oc3ccc(NS(=O)(=O)c4cn(C)cn4)cc3CC(=O)N([C@@H](C)CO)C[C@H]2C)cc1,inactive: 0.997
7,O=C(O)CCCCCCC(=O)Nc1ccc([C@H]2O[C@@H](CSc3nc(-c4ccccc4)c(-c4ccccc4)o3)C[C@@H](c3ccc(CO)cc3)O2)cc1,inactive: 0.968
8,CC(=O)n1cc([C@@H]2C=C(C(=O)N3CCCCCCC3)O[C@H](OCc3ccc(CO)cc3)C2)c2ccccc21,inactive: 1.03
9,CCCCCCCCCC(=O)O,inactive: 1.02
10,C[C@H](CO)N1C[C@H](C)[C@H](CN(C)Cc2ccc(C(=O)O)cc2)Oc2ccc(NS(=O)(=O)c3ccccc3)cc2CC1=O,inactive: 0.981
11,Nc1nc2c(ncn2COC(CO)CO)c(=O)[nH]1.O,inactive: 1.05
12,C[C@@H]1CN([C@@H](C)CO)C(=O)c2cc(NC(=O)Nc3cccc4ccccc34)ccc2O[C@@H](C)CCCCO[C@@H]1CN(C)Cc1ccc2c(c1)OCO2,inactive: 1.02
13,C[C@H](CO)N1C[C@H](C)[C@@H](CN(C)Cc2ccccc2)Oc2ccc(NC(=O)CCN3CCOCC3)cc2CC1=O,inactive: 0.988
14,C[C@H](CO)N1C[C@H](C)[C@@H](CN(C)C(=O)c2cnccn2)Oc2ncc(C#CCN(C)C)cc2C1=O,inactive: 1.01
15,CC1(C)[C@@H](O[C@H]2O[C@H](C(=O)O)[C@@H](O)[C@H](O)[C@H]2O[C@@H]2O[C@H](C(=O)O)[C@@H](O)[C@H](O)[C@H]2O)CC[C@]2(C)[C@H]3C(=O)C=C4[C@@H]5C[C@@](C)(C(=O)O)CC[C@]5(C)CC[C@@]4(C)[C@]3(C)CC[C@@H]12,inactive: 0.984
16,COc1ccc(S(=O)(=O)N(C)C[C@H]2OCCCC[C@@H](C)Oc3ccc(NS(=O)(=O)c4cn(C)cn4)cc3C(=O)N([C@H](C)CO)C[C@@H]2C)cc1,inactive: 0.998
17,Cc1cccn2c(CN)cnc12,inactive: 1.06
18,CCC[C@@H](O)C#Cc1cnc2c(c1)C(=O)N([C@H](C)CO)C[C@H](C)[C@H](CN(C)C(=O)NC1CCCCC1)O2,inactive: 0.993
19,O=C(C[C@H]1CC[C@@H](NC(=O)Nc2ccc3c(c2)OCO3)[C@@H](CO)O1)NCCCN1CCOCC1,inactive: 1.02
20,C/C=C/c1ccc2c(c1)O[C@H](CN(C)S(=O)(=O)c1ccc(F)cc1)[C@H](C)CN([C@@H](C)CO)S2(=O)=O,inactive: 1

row,SMILES,relative growth
1,Nc1nc(Nc2ccccc2)nc2c1ncn2[C@@H]1O[C@H](CO)[C@@H](O)[C@H]1O,inactive: 1
2,C[C@H](CO)N1C[C@H](C)[C@H](CN(C)C(=O)Nc2ccccc2)OCCCC[C@H](C)Oc2ccc(NC(=O)Nc3ccc(C(F)(F)F)cc3)cc2C1=O,inactive: 1.02
3,C[C@H](CO)N1C[C@H](C)[C@@H](CN(C)Cc2ccc(C(=O)O)cc2)Oc2ccc(NC(=O)Nc3ccc(C(F)(F)F)cc3)cc2CC1=O,inactive: 0.994
4,NC(=O)c1ccc2nc(-c3ccc(C4(N)CCC4)cc3)c(-c3ccccc3)n2n1,inactive: 0.989
5,C[C@@H]1CCCCO[C@H](CN(C)Cc2ccc(C(=O)Nc3ccccc3N)cc2)[C@@H](C)CN([C@@H](C)CO)C(=O)c2cc(NC(=O)Nc3ccc(C(F)(F)F)cc3)ccc2O1,inactive: 1.03
6,C[C@@H]1CCCCO[C@H](CN(C)S(=O)(=O)c2ccc(Cl)cc2)[C@@H](C)CN([C@H](C)CO)C(=O)c2cc(NS(=O)(=O)c3ccccc3)ccc2O1,inactive: 1.01
7,COc1ccc(S(=O)(=O)N2[C@@H]3CC[C@@H](C3)[C@H]2c2nc3cccc(OCc4ccccc4)c3[nH]2)cc1OC,inactive: 0.976
8,CC(C)NC(=O)N(C)C[C@@H]1Oc2ccc(NC(=O)Cn3cnnn3)cc2CC(=O)N([C@H](C)CO)C[C@H]1C,inactive: 1.01
9,C[C@H]1CN([C@@H](C)CO)C(=O)Cc2cc(NC(=O)CCC(F)(F)F)ccc2O[C@@H]1CN(C)C(=O)Nc1ccc(C(F)(F)F)cc1,inactive: 0.964
10,Cc1noc(C)c1S(=O)(=O)Nc1ccc2c(c1)C(=O)N([C@H](C)CO)C[C@@H](C)[C@H](CN(C)Cc1ccc(Oc3ccccc3)cc1)O2,inactive: 0.999
11,C=CCOc1nc(NCC)nc(N(C)C)n1,inactive: 0.943
12,CC(C)(O)CCC(O)C(C)(O)C1CCC2(O)C3=CC(=O)C4CC(O)C(O)CC4(C)C3CCC12C (stereo not given),inactive: 1.09
13,Cc1noc(C)c1NC(=O)N(C)C[C@H]1OCCCC[C@H](C)Oc2ccc(NC(=O)Nc3cccc4ccccc34)cc2C(=O)N([C@H](C)CO)C[C@@H]1C,inactive: 1.01
14,C[C@H](CO)N1C[C@H](C)[C@H](CN(C)Cc2ccc(Cl)c(Cl)c2)Oc2c(NC(=O)Nc3cccc4ccccc34)cccc2C1=O,inactive: 1.01
15,C[C@H]1CN([C@@H](C)CO)C(=O)Cc2cc(NC(=O)Cn3cnnn3)ccc2O[C@@H]1CN(C)Cc1ccccc1,inactive: 1
16,Cc1noc(C)c1S(=O)(=O)N(C)C[C@H]1Oc2ccc(NC(=O)NC3CCCCC3)cc2CC(=O)N([C@@H](C)CO)C[C@H]1C,inactive: 1.02
17,CO[C@H]1CN(C)C(=O)c2cc(NC(=O)Nc3ccc(Cl)cc3)ccc2OC[C@@H](C)N(C(=O)Nc2c(C)noc2C)C[C@@H]1C,inactive: 0.989
18,COc1cccc(-c2ccc3c(c2)O[C@@H](CN(C)C(=O)C2CCC2)[C@H](C)CN([C@@H](C)CO)S3(=O)=O)c1,inactive: 1.03
19,O=CN1CCN(C(=O)c2ccccc2)CC1,inactive: 0.978
20,CC(C)CCCC(C)C1CCC2C3CCC4CC(=O)CCC4(C)C3CCC12C (stereo not given),inactive: 0.894

row,SMILES,relative growth
1,OCC1CCNCC1,inactive: 0.997
2,Cc1noc(C)c1NC(=O)N(C)C[C@H]1OCCCC[C@@H](C)Oc2ccc(NC(=O)CCC(F)(F)F)cc2C(=O)N([C@@H](C)CO)C[C@H]1C,inactive: 1
3,CN(CC(=O)O)S(=O)(=O)c1ccc(F)cc1,inactive: 0.983
4,Cn1c(=O)c2c(ncn2C[C@@H](O)CNc2ccc(Br)cc2)n(C)c1=O,inactive: 0.994
5,O=C(C[C@@H]1CC[C@H]2[C@@H](COC[C@H](O)CN2S(=O)(=O)c2cccc(F)c2)O1)NCCCN1CCOCC1,inactive: 0.982
6,CCCN(C)C[C@@H]1OCCCC[C@@H](C)Oc2ccc(NC(=O)NC3CCCCC3)cc2C(=O)N([C@H](C)CO)C[C@@H]1C,inactive: 1.03
7,CC(C)CC(=O)C(=O)O,inactive: 1.01
8,COc1ccc(CN(C)C[C@@H]2Oc3ccc(NC(=O)C4CC4)cc3CC(=O)N([C@@H](C)CO)C[C@H]2C)cc1,inactive: 1.02
9,C[C@@H]1CN([C@@H](C)CO)C(=O)c2cccc(NC(=O)C3CCCCC3)c2O[C@H]1CN(C)C(=O)Nc1cccc2ccccc12,inactive: 0.976
10,O=S1(=O)C[C@H](O)[C@@H](N2CCN(CCO)CC2)C1,inactive: 1.01
11,COc1ccc(NC(=O)Nc2ccc3c(c2)C(=O)N([C@@H](C)CO)C[C@H](C)[C@@H](CN(C)S(=O)(=O)c2ccc(C)cc2)OCCCC[C@H](C)O3)cc1,inactive: 1.04
12,Cc1noc(C)c1S(=O)(=O)N(C)C[C@H]1Oc2ccc(NS(=O)(=O)c3ccc(Cl)cc3)cc2CC(=O)N([C@@H](C)CO)C[C@H]1C,inactive: 1
13,C[C@H](CO)N1C[C@H](C)[C@@H](CN(C)Cc2ccncc2)OCCCC[C@H](C)Oc2ccc(NC(=O)Nc3ccc4c(c3)OCO4)cc2C1=O,inactive: 0.976
14,Cc1ccc(S(=O)(=O)N[C@@H]2CC[C@@H](CC(=O)N3CCC(Cc4ccccc4)CC3)O[C@H]2CO)cc1,inactive: 0.989
15,C[C@@H]1CN([C@@H](C)CO)C(=O)c2cc(NC(=O)Nc3ccc(C(F)(F)F)cc3)ccc2O[C@@H](C)CCCCO[C@@H]1CN(C)S(=O)(=O)c1cn(C)cn1,inactive: 0.978
16,C[C@@H]1CN([C@@H](C)CO)C(=O)c2cc(NC(=O)Cn3cnnn3)ccc2O[C@@H]1CN(C)C(=O)Nc1cccc2ccccc12,inactive: 1.02
17,CO[C@H]1CN(C)C(=O)c2cc(NS(=O)(=O)CC(F)(F)F)ccc2OC[C@H](C)N(Cc2nccs2)C[C@@H]1C,inactive: 0.999
18,COc1ccc(S(=O)(=O)N(C)C[C@@H]2OCCCC[C@@H](C)Oc3ccc(NC(=O)Nc4ccccc4)cc3C(=O)N([C@H](C)CO)C[C@@H]2C)cc1,inactive: 1.02
19,C[C@@H]1CN([C@H](C)CO)C(=O)c2cc(NC(=O)Nc3cccc4ccccc34)ccc2O[C@@H](C)CCCCO[C@@H]1CN(C)S(=O)(=O)c1ccc(F)cc1,inactive: 1
20,O=C(C[C@@H]1C[C@@H]2c3cc(NS(=O)(=O)c4ccc(F)cc4)ccc3O[C@@H]2[C@H](CO)O1)N1CCOCC1,inactive: 1
